# The supplement of paper PMC8728848
# The list shows a part of the results.
# Columns and labels:
# Assay in all cases: glycan array binding signal (z-score within array); higher = stronger binding
# Conditions in all cases: glycan notation: IUPAC condensed, linker removed
# [1] = molecular target: Gal(b1-4)GlcNAc(b1-3)Gal(b1-4)GlcNAc(b1-3)Gal(b1-4)GlcNAc
# In short: (§1)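 Glycan array data were curated from 3228 arrays in the Consortium for Functional Glycomics database and kept only where the protein sequence was available. Glycan names were converted to IUPAC-condensed notation, and columns mapping to the same glycan were averaged. The binding signal is a within-array Z-score, averaged across arrays of the same protein sequence at different concentrations or buffers and across linkers. Negative Z-scores can be read as non-binding.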
# [2] = molecular target: Gal(b1-4)GlcNAc(b1-3)Gal(b1-4)[Fuc(a1-3)]GlcNAc(b1-3)Gal(b1-4)[Fuc(a1-3)]GlcNAc
# In short: as §1
# [3] = molecular target: Gal(b1-4)GlcNAc(b1-3)GalNAc
# In short: as §1
# [4] = molecular target: Gal(b1-4)GlcNAc(b1-3)[Gal(b1-4)GlcNAc(b1-6)]Gal(b1-4)GlcNAc
# In short: as §1
# [5] = molecular target: Gal(b1-4)GlcNAc(b1-3)[Gal(b1-4)GlcNAc(b1-6)]GalNAc
# In short: as §1
# [6] = molecular target: Gal(b1-4)GlcNAc(b1-3)[GlcNAc(b1-6)]Gal(b1-4)GlcNAc
# In short: as §1
# [7] = molecular target: Gal(b1-4)GlcNAc(b1-6)Gal(b1-4)GlcNAc
# In short: as §1
# [8] = molecular target: Gal(b1-4)GlcNAc(b1-6)Gal(b1-4)GlcNAc(b1-6)GalNAc
# In short: as §1
# [9] = molecular target: Gal(b1-4)GlcNAc(b1-6)GalNAc
# In short: as §1
# [10] = molecular target: Gal(b1-4)GlcNAc(b1-6)[Gal(b1-3)]GalNAc
# In short: as §1
# Gal3S(b1-3)GalNAc = molecular target: Gal3S(b1-3)GalNAc
# In short: as §1
# Gal3S(b1-3)GlcNAc = molecular target: Gal3S(b1-3)GlcNAc
# In short: as §1
# [11] = molecular target: Gal3S(b1-3)[Fuc(a1-4)]GlcNAc
# In short: as §1
# Gal3S(b1-4)Glc = molecular target: Gal3S(b1-4)Glc
# In short: as §1
# Gal3S(b1-4)Glc6S = molecular target: Gal3S(b1-4)Glc6S
# In short: as §1
# Gal3S(b1-4)GlcNAc = molecular target: Gal3S(b1-4)GlcNAc
# In short: as §1
# Gal3S(b1-4)GlcNAc6S = molecular target: Gal3S(b1-4)GlcNAc6S
# In short: as §1
# [12] = molecular target: Gal3S(b1-4)[Fuc(a1-3)]Glc
# In short: as §1
# Gal3S4S(b1-4)GlcNAc = molecular target: Gal3S4S(b1-4)GlcNAc
# In short: as §1
# Gal3S6S(b1-4)GlcNAc = molecular target: Gal3S6S(b1-4)GlcNAc
# In short: as §1
# Gal3S6S(b1-4)GlcNAc6S = molecular target: Gal3S6S(b1-4)GlcNAc6S
# In short: as §1
# Gal4S(b1-4)GlcNAc = molecular target: Gal4S(b1-4)GlcNAc
# In short: as §1
# Gal4S6S(b1-4)GlcNAc = molecular target: Gal4S6S(b1-4)GlcNAc
# In short: as §1
# Gal6S(b1-4)Glc = molecular target: Gal6S(b1-4)Glc
# In short: as §1
# Gal6S(b1-4)Glc6S = molecular target: Gal6S(b1-4)Glc6S
# In short: as §1
# Gal6S(b1-4)GlcNAc = molecular target: Gal6S(b1-4)GlcNAc
# In short: as §1
# Gal6S(b1-4)GlcNAc6S = molecular target: Gal6S(b1-4)GlcNAc6S
# In short: as §1
# GalNAc(a1-3)Gal = molecular target: GalNAc(a1-3)Gal
# In short: as §1
# GalNAc(a1-3)GalNAc = molecular target: GalNAc(a1-3)GalNAc
# In short: as §1
# GalNAc(b1-3)Gal = molecular target: GalNAc(b1-3)Gal
# In short: as §1
# [13] = molecular target: GalNAc(b1-3)Gal(a1-4)Gal(b1-4)GlcNAc
# In short: as §1
# GalNAc(b1-3)GalNAc = molecular target: GalNAc(b1-3)GalNAc
# In short: as §1
# GalNAc(b1-4)GlcNAc = molecular target: GalNAc(b1-4)GlcNAc
# In short: as §1
# Glc(a1-4)Glc = molecular target: Glc(a1-4)Glc
# In short: as §1
# Glc(a1-6)Glc(a1-6)Glc = molecular target: Glc(a1-6)Glc(a1-6)Glc
# In short: as §1
# Glc(b1-4)Glc = molecular target: Glc(b1-4)Glc
# In short: as §1
# Glc(b1-6)Glc = molecular target: Glc(b1-6)Glc
# In short: as §1
# GlcA(b1-3)Gal = molecular target: GlcA(b1-3)Gal
# In short: as §1
# GlcA(b1-3)GlcNAc = molecular target: GlcA(b1-3)GlcNAc
# In short: as §1
# GlcA(b1-6)Gal = molecular target: GlcA(b1-6)Gal
# In short: as §1
# [14] = molecular target: GlcNAc(a1-3)Gal(b1-4)GlcNAc
# In short: as §1
# [15] = molecular target: GlcNAc(a1-6)Gal(b1-4)GlcNAc
# In short: as §1
# [16] = molecular target: GlcNAc(b1-2)Gal(b1-3)GalNAc
# In short: as §1
# [17] = molecular target: GlcNAc(b1-2)Man(a1-3)[GlcNAc(b1-2)Man(a1-6)]Man(b1-4)GlcNAc(b1-4)GlcNAc
# In short: as §1
# GlcNAc(b1-3)Gal = molecular target: GlcNAc(b1-3)Gal
# In short: as §1
binder,measurement,setting,value
TbCVNHOb (Tuber borchii) (protein) MSFYASSEDVRTIEEGGRTWLVGRARRADGSWQDIKLDLDNIIGNRDGHLTWGEQNFTQSASDIRFNFEGGSNVPVLRAKLRNAAGGEQESDLNLGERLTNNNGDLVFN,glycan array binding signal (z-score),[1],-0.25
same,glycan array binding signal (z-score),[2],-0.056
same,glycan array binding signal (z-score),[3],-0.113
same,glycan array binding signal (z-score),[4],-0.173
same,glycan array binding signal (z-score),[5],-0.321
same,glycan array binding signal (z-score),[6],-0.156
same,glycan array binding signal (z-score),[7],-0.142
same,glycan array binding signal (z-score),[8],-0.296
same,glycan array binding signal (z-score),[9],-0.122
same,glycan array binding signal (z-score),[10],-0.225
same,glycan array binding signal (z-score),Gal3S(b1-3)GalNAc,-0.165
same,glycan array binding signal (z-score),Gal3S(b1-3)GlcNAc,0.006
same,glycan array binding signal (z-score),[11],-0.06
same,glycan array binding signal (z-score),Gal3S(b1-4)Glc,-0.222
same,glycan array binding signal (z-score),Gal3S(b1-4)Glc6S,-0.072
same,glycan array binding signal (z-score),Gal3S(b1-4)GlcNAc,-0.125
same,glycan array binding signal (z-score),Gal3S(b1-4)GlcNAc6S,-0.026
same,glycan array binding signal (z-score),[12],-0.239
same,glycan array binding signal (z-score),Gal3S4S(b1-4)GlcNAc,-0.127
same,glycan array binding signal (z-score),Gal3S6S(b1-4)GlcNAc,-0.149
same,glycan array binding signal (z-score),Gal3S6S(b1-4)GlcNAc6S,0.125
same,glycan array binding signal (z-score),Gal4S(b1-4)GlcNAc,0.051
same,glycan array binding signal (z-score),Gal4S6S(b1-4)GlcNAc,-0.061
same,glycan array binding signal (z-score),Gal6S(b1-4)Glc,-0.073
same,glycan array binding signal (z-score),Gal6S(b1-4)Glc6S,0.112
same,glycan array binding signal (z-score),Gal6S(b1-4)GlcNAc,-0.01
same,glycan array binding signal (z-score),Gal6S(b1-4)GlcNAc6S,-0.117
same,glycan array binding signal (z-score),GalNAc(a1-3)Gal,0.064
same,glycan array binding signal (z-score),GalNAc(a1-3)GalNAc,-0.091
same,glycan array binding signal (z-score),GalNAc(b1-3)Gal,0.254
same,glycan array binding signal (z-score),[13],0.184
same,glycan array binding signal (z-score),GalNAc(b1-3)GalNAc,0.008
same,glycan array binding signal (z-score),GalNAc(b1-4)GlcNAc,0.024
same,glycan array binding signal (z-score),Glc(a1-4)Glc,-0.033
same,glycan array binding signal (z-score),Glc(a1-6)Glc(a1-6)Glc,0.006
same,glycan array binding signal (z-score),Glc(b1-4)Glc,-0.189
same,glycan array binding signal (z-score),Glc(b1-6)Glc,-0.193
same,glycan array binding signal (z-score),GlcA(b1-3)Gal,0
same,glycan array binding signal (z-score),GlcA(b1-3)GlcNAc,0.207
same,glycan array binding signal (z-score),GlcA(b1-6)Gal,-0.242
same,glycan array binding signal (z-score),[14],-0.104
same,glycan array binding signal (z-score),[15],-0.136
same,glycan array binding signal (z-score),[16],0.017
same,glycan array binding signal (z-score),[17],-0.107
same,glycan array binding signal (z-score),GlcNAc(b1-3)Gal,-0.192
